Measurements published in article PMC4336329 (PLoS ONE, 2015).
Screen size: about 310,000 compounds; about 14,000 (4.5%) showed an effect of 50% or more. Effects have a minus sign here. This is one part of the list.

target: human ether-à-go-go-related gene (hERG) potassium channel (human, UniProt Q12809); experiment: primary screen, population patch clamp on CHO cells stably expressing hERG
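Further: peak tail current of the secondary pulse compared with the same well before compound.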

Sequence of human ether-à-go-go-related gene (hERG) potassium channel (Q12809 whole entry, looked up): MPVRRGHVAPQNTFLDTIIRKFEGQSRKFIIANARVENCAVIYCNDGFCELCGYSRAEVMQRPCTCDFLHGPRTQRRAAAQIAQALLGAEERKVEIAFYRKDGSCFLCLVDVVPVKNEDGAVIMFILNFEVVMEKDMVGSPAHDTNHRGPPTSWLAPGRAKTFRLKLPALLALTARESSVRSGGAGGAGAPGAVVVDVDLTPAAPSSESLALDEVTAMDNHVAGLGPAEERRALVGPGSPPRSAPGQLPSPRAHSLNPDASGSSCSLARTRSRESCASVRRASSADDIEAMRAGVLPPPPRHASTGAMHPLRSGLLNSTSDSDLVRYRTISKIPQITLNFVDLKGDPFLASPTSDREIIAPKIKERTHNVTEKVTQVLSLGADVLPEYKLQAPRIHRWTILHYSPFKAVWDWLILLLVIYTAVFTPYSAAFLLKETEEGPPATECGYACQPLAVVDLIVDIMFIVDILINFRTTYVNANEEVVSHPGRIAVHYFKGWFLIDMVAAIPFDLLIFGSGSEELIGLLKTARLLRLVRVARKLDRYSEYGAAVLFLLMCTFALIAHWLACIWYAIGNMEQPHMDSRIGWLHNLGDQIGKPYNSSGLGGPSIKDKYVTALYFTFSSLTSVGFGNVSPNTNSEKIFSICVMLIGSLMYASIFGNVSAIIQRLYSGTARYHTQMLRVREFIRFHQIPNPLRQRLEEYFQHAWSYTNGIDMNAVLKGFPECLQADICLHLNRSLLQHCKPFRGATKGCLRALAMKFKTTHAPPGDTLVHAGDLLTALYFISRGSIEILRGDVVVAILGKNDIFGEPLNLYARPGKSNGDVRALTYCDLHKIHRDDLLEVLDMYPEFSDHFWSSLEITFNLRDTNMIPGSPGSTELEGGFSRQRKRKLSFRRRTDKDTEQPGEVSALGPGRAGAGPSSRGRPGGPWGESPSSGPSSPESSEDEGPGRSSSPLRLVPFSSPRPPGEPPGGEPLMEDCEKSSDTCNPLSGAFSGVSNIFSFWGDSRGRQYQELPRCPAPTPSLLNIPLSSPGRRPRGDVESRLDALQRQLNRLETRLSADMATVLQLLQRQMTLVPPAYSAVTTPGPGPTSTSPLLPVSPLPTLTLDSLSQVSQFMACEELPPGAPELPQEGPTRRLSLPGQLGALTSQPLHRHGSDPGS

SMILES	hERG current change (%, negative = inhibition) at 10uM
CN(Cc1ccc(F)cc1)C(=O)c1cccc(S(=O)(=O)N2CCN(Cc3ccccc3)CC2)c1	-16%
Cc1ccc(S(=O)(=O)NCc2ccccc2)cc1C(=O)N1CCN(c2ccccc2)CC1	-24.6%
COc1ccc(C2c3c(oc4ccccc4c3=O)C(=O)N2Cc2ccncc2)cc1OC (stereo not shown)	-9.16%
CCNc1nc(Cl)nc(N(NC(C)=O)C(C)C)n1	17.2%
CCCN(CCC)C(=O)CSc1nc2n[nH]c(C)c2c(=N)n1-c1ccc(OC)cc1	-35%
COc1ccc(C2=CC(=O)CC(c3ccc(OC)cc3)C2)cc1 (stereo not shown)	2.96%
COc1ccc(Cc2nnc(NC(=O)c3ccccc3C)s2)cc1	15.4%
CC(C)Oc1ccc(CNC(=O)CC(c2ccccc2)c2cc(Cl)ccc2O)cc1 (stereo not shown)	11.8%
O=C(O)c1cccc(N2C(=O)c3cccc4cccc(c34)C2=O)c1	12.7%
Cc1ccccc1NC(=O)CC1C(=O)Nc2ccccc2N1CC(=O)N(C)C1CCS(=O)(=O)C1 (stereo not shown)	6.56%
O=C(NCc1ccccc1)c1onc(CSc2nc3ccccc3[nH]2)c1C(=O)NCc1ccccc1	-2.16%
C/C(=N\NC(=O)C(O)c1ccccc1)c1cccnc1 (stereo not shown)	24.5%
Cc1cccc(/C(N)=N/OC(=O)c2ccc(Br)o2)c1	11.7%
CCNCCNC(=O)c1c(O)c2cccc3c2n(c1=O)CCC3.Cl	-3.98%
Cc1nnc(-c2cnn(C)c2N)n1Cc1ccccc1F	19.6%
CN(C)c1nc(Nc2ccc(Cl)c(Cl)c2)nc(N(C)C)n1	6.76%
Cc1cc([N+](=O)[O-])ccc1NC(=O)CSc1nncn1-c1cccnc1	-42.2%
CC(C)CNC(=O)c1ccccc1NC(=O)c1ccc(CSc2ccccc2)cc1	11.2%
Cc1cc(C)n(C(=O)c2ccc(C)c(S(=O)(=O)N3CCCC3)c2)n1	-11.8%
O=C(Nc1ccc(C(=O)Nc2ccccc2Cl)cc1)c1cccnc1	5.11%
CCOc1ccccc1N(CC(=O)NC1CCCC1)C(=O)CCCC(=O)Nc1ccccn1	-8.6%
COc1ccc(OC)c(Nc2nc(N)nc(CSc3nnc(N)s3)n2)c1	-3.49%

SMILES	hERG current change (%, negative = inhibition) at 10uM
Cc1cc(Cl)ccc1C(=O)C1CCCN(C(=O)c2n[nH]c3c2CCCC3)C1 (stereo not shown)	11.6%
O=C(COc1ccccc1Br)NC1CC1	18.1%
CCOC(=O)c1[nH]c2cc3c(cc2c1NC(=O)CN1CCN(CCO)CC1)OCO3	-25.8%
Cc1cc(C)c(C)c(S(=O)(=O)Nc2cccnc2)c1C	11.1%
CCCC1CCC(C(=O)Nn2cnc3ccccc3c2=O)CC1 (stereo not shown)	-20.2%
CCN(CC)c1cccc(OCC(=O)N2c3ccccc3CC2C)c1 (stereo not shown)	-0.158%
CNNCc1ccc(C(=O)NC(C)C)cc1.Cl	7.55%
Cc1onc(-c2ccccc2)c1C(=O)NC(CC(=O)O)c1ccc(OC(C)C)cc1 (stereo not shown)	8.3%
O=C(N/N=C/c1cccs1)C(O)c1ccccc1 (stereo not shown)	19.3%
CCN(c1cccc(C)c1)S(=O)(=O)c1ccc2c(c1)N(C(C)=O)CCS2	-15%
COc1ccccc1OCC(=O)Nc1cc2c(cc1C(=O)O)OCCCO2	9.79%
O=C(c1ccc(OC2CCN(CCc3ccccc3)CC2)cc1)N1CCCC(CCCO)C1 (stereo not shown)	-13.4%
CC(C)[C@H](NC(=O)c1ccc(F)cc1)C(=O)OCC(=O)NC(=O)c1cccn1C	-17.3%
Cc1ccc(/C=N/NC(=O)CCSc2ccccc2)cc1	7.51%
S=C(Nc1cccc(Cl)c1)NC1CC2CCCC(C1)N2C1CCCC1 (stereo not shown)	19%
COc1ccccc1NS(=O)(=O)c1cc2c3c(c1)CCN3C(=O)CC2	5.7%
COc1ccc(N2CCN(C(=O)Cc3cccs3)CC2)cc1	1.11%
COc1ccccc1NC(=O)C1=C(C)N(c2ccccc2)C(=S)NC1c1cccc(C(F)(F)F)c1 (stereo not shown)	-7.7%
Cc1ccc(S(=O)(=O)CCC(=O)OCC(=O)Nc2ccc(N3CCOCC3)cc2)cc1	5.62%
O=C(C1CC12CCCC2)N1CCC(CO)(Cc2ccccc2Cl)CC1 (stereo not shown)	-10.4%
O=C(O)c1cccc(S(=O)(=O)Nc2cccc(S(=O)(=O)N3CCCCCC3)c2)c1	22.6%
